Measurements: CN106928350A

Molecular target: H15 HA (Influenza A virus, H15 subtype (strain not stated))
Experiment: SPR, Fab amine-coupled on CM5 chip, HA in flow

B1: AF4H1K1 Fab (Fab, V domains shown)
VH: QVQLVESGGGVVQPGTSLRLSCEASGFTSSAYAMHWVRQAPGKGLEWVAVITFDGGYQYYADSVKGRFTISRDISRNTLHLHMNSLRAEDTAVYYCARDPLTKLLPFDWVSGGYFDYWGQGTLVTVSS
VL: DIVMTQSPGTLSLSPGERATLS[letters of about 80 residues left out]FGQGTKVEIK
Binder B1 has a Kd of 1800 nM.
